The other results are listed elsewhere or left out.
B1: PhoQ; a variant is named by its letters at X, in order, P23837 (parent)
chain: MKKLLRLFFPLSLRVRFLLATAAVVLVLSLAYGMVALIGYSVSFDKTTFRLLRGESNLFYTLAKWENNKLHVELPENIDKQSPTMTLIYDENGQLLWAQRDVPWLMKMIQPDWLKSNGFHEIEADVNDTSLLLSGDHSIQQQLQEVREDDDDAEMTHSVAVNVYPATSRMPKLTIVVVDTIPVELKSSYMVWSWFIYVLSANLLLVIPLLWVAAWWSLRPIEALAKEVRELEEHNRELLNPATTRELTSLVRNLNRLLKSERERYDKYRTTLTDLTHSLKTPLXXLQXXLRSLRSEKMSVSDAEPVMLEQISRISQQIGYYLHRASMRGGTLLSRELHPVAPLLDNLTSALNKVYQRKGVNISLDISPEISFVGEQNDFVEVMGNVLDNACKYCLEFVEISARQTDEHLYIVVEDDGPGIPLSKREVIFDRGQRVDTLRPGQGVGLAVAREITEQYEGKIVAGESMLGGARMEVIFGRQHSAPKDE

Variants of: B1
Experiment: enrichment ratio after two sorts for PhoP signalling (ratio (wild type AVST 3.29)); higher = more functional
Conditions: with PhoP (E. coli)

Q: Which enrichment ratio does the source give for KEVY here?
A: ≤ 0.25

Q: Which enrichment ratio does the source give for MQKL here?
A: ≤ 0.25

Q: With ALAT as the variant, how does the enrichment ratio read?
A: 1.17

Q: Which enrichment ratio does the source give for IYHN here?
A: ≤ 0.25

Q: For HSTY, which enrichment ratio is on record?
A: ≤ 0.25

Q: Which enrichment ratio does the source give for HLDG here?
A: ≤ 0.25

Q: With RTEF as the variant, how does the enrichment ratio read?
A: ≤ 0.25

Q: KAYH was tested. Which enrichment ratio did it give?
A: ≤ 0.25

Q: KMYM was tested. Which enrichment ratio did it give?
A: ≤ 0.25

Q: With ALAV as the variant, how does the enrichment ratio read?
A: 8.34

Q: For KRYE, which enrichment ratio is on record?
A: ≤ 0.25

Q: With PIPG as the variant, how does the enrichment ratio read?
A: ≤ 0.25

Q: How did the enrichment ratio turn out when IWAQ was run?
A: ≤ 0.25

Q: TLFA was tested. Which enrichment ratio did it give?
A: ≤ 0.25

Q: Which enrichment ratio does the source give for TWLG here?
A: ≤ 0.25

Q: With ETTF as the variant, how does the enrichment ratio read?
A: ≤ 0.25

Q: How did the enrichment ratio turn out when FYPI was run?
A: ≤ 0.25

Q: Which enrichment ratio does the source give for HRWG here?
A: ≤ 0.25

Q: QFRI was tested. Which enrichment ratio did it give?
A: ≤ 0.25

Q: RWLQ was tested. Which enrichment ratio did it give?
A: ≤ 0.25

Q: For FQVV, which enrichment ratio is on record?
A: ≤ 0.25

Q: For IWAE, which enrichment ratio is on record?
A: ≤ 0.25

Q: Which enrichment ratio does the source give for MEFK here?
A: 1.13

Q: Which enrichment ratio does the source give for HNNT here?
A: ≤ 0.25

Q: For IREM, which enrichment ratio is on record?
A: ≤ 0.25

Q: For VVCL, which enrichment ratio is on record?
A: ≤ 0.25

Q: QHRS was tested. Which enrichment ratio did it give?
A: ≤ 0.25

Q: With FYEP as the variant, how does the enrichment ratio read?
A: ≤ 0.25

Q: For EKFL, which enrichment ratio is on record?
A: ≤ 0.25

Q: Which enrichment ratio does the source give for QVQS here?
A: ≤ 0.25

Q: How did the enrichment ratio turn out when FGQG was run?
A: ≤ 0.25

Q: How did the enrichment ratio turn out when SCQR was run?
A: ≤ 0.25

Q: Which enrichment ratio does the source give for FTIW here?
A: ≤ 0.25

Q: How did the enrichment ratio turn out when RWET was run?
A: ≤ 0.25

Q: HVMP was tested. Which enrichment ratio did it give?
A: ≤ 0.25

Q: For HYEF, which enrichment ratio is on record?
A: ≤ 0.25

Q: With AWFF as the variant, how does the enrichment ratio read?
A: ≤ 0.25

Q: With QSAR as the variant, how does the enrichment ratio read?
A: ≤ 0.25

Q: YMAI was tested. Which enrichment ratio did it give?
A: 0.259

Q: With CKSC as the variant, how does the enrichment ratio read?
A: ≤ 0.25

Q: With CICL as the variant, how does the enrichment ratio read?
A: ≤ 0.25

Q: Which enrichment ratio does the source give for LDMD here?
A: ≤ 0.25

Q: How did the enrichment ratio turn out when WQMY was run?
A: ≤ 0.25

Q: RESE was tested. Which enrichment ratio did it give?
A: ≤ 0.25

Q: How did the enrichment ratio turn out when PIEA was run?
A: ≤ 0.25

Q: With SDWI as the variant, how does the enrichment ratio read?
A: ≤ 0.25

Q: With PLAC as the variant, how does the enrichment ratio read?
A: ≤ 0.25

Q: For MSFD, which enrichment ratio is on record?
A: ≤ 0.25

Q: For VAIR, which enrichment ratio is on record?
A: ≤ 0.25

Q: How did the enrichment ratio turn out when WNRY was run?
A: ≤ 0.25

Q: With TSKK as the variant, how does the enrichment ratio read?
A: ≤ 0.25

Q: For QRNV, which enrichment ratio is on record?
A: ≤ 0.25

Q: How did the enrichment ratio turn out when LLNA was run?
A: ≤ 0.25

Q: Which enrichment ratio does the source give for PYHQ here?
A: ≤ 0.25

Q: Which enrichment ratio does the source give for WQYF here?
A: ≤ 0.25

Q: VYIA was tested. Which enrichment ratio did it give?
A: ≤ 0.25

Q: How did the enrichment ratio turn out when EMLD was run?
A: ≤ 0.25

Q: Which enrichment ratio does the source give for MFQD here?
A: ≤ 0.25

Q: Which enrichment ratio does the source give for MRWF here?
A: ≤ 0.25

Q: With QQDA as the variant, how does the enrichment ratio read?
A: 4.59

Q: With IMTI as the variant, how does the enrichment ratio read?
A: ≤ 0.25

Q: How did the enrichment ratio turn out when LMEM was run?
A: ≤ 0.25

Q: KVYG was tested. Which enrichment ratio did it give?
A: ≤ 0.25

Q: With HKHH as the variant, how does the enrichment ratio read?
A: ≤ 0.25

Q: For ICVT, which enrichment ratio is on record?
A: ≤ 0.25

Q: With RHKP as the variant, how does the enrichment ratio read?
A: ≤ 0.25

Q: For AMSY, which enrichment ratio is on record?
A: 6.47

Q: YDCD was tested. Which enrichment ratio did it give?
A: ≤ 0.25

Q: How did the enrichment ratio turn out when TMAG was run?
A: 7.16

Q: HSLH was tested. Which enrichment ratio did it give?
A: ≤ 0.25

Q: For HQDW, which enrichment ratio is on record?
A: ≤ 0.25

Q: Which enrichment ratio does the source give for EASP here?
A: ≤ 0.25

Q: Which enrichment ratio does the source give for MFVR here?
A: ≤ 0.25

Q: For LEPY, which enrichment ratio is on record?
A: ≤ 0.25

Q: For NKGC, which enrichment ratio is on record?
A: ≤ 0.25

Q: For NIMR, which enrichment ratio is on record?
A: ≤ 0.25

Q: With AGHR as the variant, how does the enrichment ratio read?
A: ≤ 0.25

Q: VCAI was tested. Which enrichment ratio did it give?
A: 5.25

Q: How did the enrichment ratio turn out when KEQY was run?
A: ≤ 0.25

Q: With IWRK as the variant, how does the enrichment ratio read?
A: ≤ 0.25

Q: For TSRV, which enrichment ratio is on record?
A: ≤ 0.25

Q: With HKRV as the variant, how does the enrichment ratio read?
A: ≤ 0.25

Q: WYIE was tested. Which enrichment ratio did it give?
A: ≤ 0.25

Q: How did the enrichment ratio turn out when HNWP was run?
A: ≤ 0.25

Q: With PWRW as the variant, how does the enrichment ratio read?
A: ≤ 0.25

Q: Which enrichment ratio does the source give for PQDS here?
A: ≤ 0.25

Q: QMFI was tested. Which enrichment ratio did it give?
A: ≤ 0.25

Q: Which enrichment ratio does the source give for VTKG here?
A: ≤ 0.25

Q: With ESLE as the variant, how does the enrichment ratio read?
A: ≤ 0.25

Q: How did the enrichment ratio turn out when RYWK was run?
A: ≤ 0.25

Q: How did the enrichment ratio turn out when TCKS was run?
A: ≤ 0.25

Q: How did the enrichment ratio turn out when TTMK was run?
A: ≤ 0.25

Q: How did the enrichment ratio turn out when DPEP was run?
A: ≤ 0.25

Q: TDYM was tested. Which enrichment ratio did it give?
A: ≤ 0.25

Q: Which enrichment ratio does the source give for HNKA here?
A: ≤ 0.25

Q: QNAC was tested. Which enrichment ratio did it give?
A: ≤ 0.25

Q: How did the enrichment ratio turn out when QQPV was run?
A: ≤ 0.25
